Results taken from PubChem BioAssay AID588342 (National Center for Advancing Translational Sciences (NCATS), 2011).
In all, about 360,000 compounds went through this assay and about 25,000 (6.9%) were called active. Inconclusive results, whose numbers are uncertain, are shown with a selection of clear calls. Calls follow the shape of the dose curve; as a rule, active = well fitted inhibition curve with a large enough effect; inconclusive = small, poorly fitted or top-dose-only effect; inactive = flat fitted curve, though single readings scatter. A potency beside an inconclusive call is a rough fit, not a confirmed value.

These compounds were tested against Luciferin 4-monooxygenase (Photinus pyralis) (UniProt P08659) (assay: qHTS profiling assay for firefly luciferase inhibitor/activator using purifed enzyme and Km concentrations of substrates (counterscreen for miR-21 project)). Conditions: purified FLuc, luminescence inhibition; series mostly up to 57.5 µM.
Procedure, shortened: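 Purified P. pyralis luciferase (10nM final) with 10uM D-luciferin and 10uM ATP (Km levels) in 50mM Tris acetate pH 7.5, 10mM Mg acetate, 0.01% Tween-20, 0.05% BSA; qHTS 6-point titration, ~60 µM downward; luminescence read.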
Also: nearly all actives have a fitted effect of over 55% in size.
Potency is read from the fitted curve at half-maximal effect; tags tell the direction and shape of the fitted curve.

Sequence of UniProt P08659 (P08659 whole entry, looked up): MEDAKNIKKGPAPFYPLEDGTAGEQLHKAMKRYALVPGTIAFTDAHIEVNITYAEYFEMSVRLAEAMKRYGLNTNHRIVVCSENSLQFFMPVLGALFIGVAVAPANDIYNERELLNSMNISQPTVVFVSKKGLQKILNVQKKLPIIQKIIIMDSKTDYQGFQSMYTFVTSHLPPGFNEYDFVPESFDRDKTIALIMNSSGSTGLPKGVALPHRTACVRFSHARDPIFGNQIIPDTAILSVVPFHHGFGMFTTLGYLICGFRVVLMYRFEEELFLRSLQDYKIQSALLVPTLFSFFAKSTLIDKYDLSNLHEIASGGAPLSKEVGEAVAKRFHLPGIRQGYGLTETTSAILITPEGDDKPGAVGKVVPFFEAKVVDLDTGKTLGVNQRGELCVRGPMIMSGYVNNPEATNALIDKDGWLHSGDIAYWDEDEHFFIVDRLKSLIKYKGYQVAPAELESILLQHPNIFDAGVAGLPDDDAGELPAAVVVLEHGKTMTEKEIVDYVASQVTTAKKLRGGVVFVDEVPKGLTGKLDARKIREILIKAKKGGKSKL

| SMILES | Potency |
| --- | --- |
| O=C(Cc1ccc(F)cc1)c1ccc(O)cc1O | inconclusive: 23.9 µM [inhibitor, single point] |
| CC1CCCCN1C(=O)CSc1nc(-c2ccccc2)no1 (centres undefined) | inconclusive: 23.9 µM [inhibitor, partial curve] |
| CC1CCC(C(C)C)C(=O)/C1=C/c1ccc(N)cc1 (centres undefined) | active: 10.7 µM |
| CC(C)(C)C1CCc2onc(C(=O)Nc3ccc(F)cc3F)c2C1 (centres undefined) | inconclusive: 26.9 µM [inhibitor, partial curve, poor fit] |
| Cc1ccc(-c2nc3ccccn3c2NCc2ccc3c(c2)OCO3)cc1 | active: 12 µM |
| O=C(CSc1nccn1Cc1ccc2c(c1)OCO2)Nc1ccccc1F | inactive |
| CCCCCc1ccc(-c2ccc(OC)cc2)nc1 | inconclusive: 37.9 µM [inhibitor, single point] |
| Oc1ccc(Br)cc1-c1cc(-c2ccccc2)n[nH]1 | inactive |
| CS(=O)(=O)c1ccc(NCCc2ccccn2)c([N+](=O)[O-])c1 | inactive |
| COc1cccc(N2CCN(C(=O)c3cccn3-c3nnc(N4CCCCC4)s3)CC2)c1 | inactive |
| CCOc1ccc2nc(NS(=O)(=O)c3cccs3)sc2c1 | inconclusive: 30.1 µM [inhibitor, partial curve, poor fit] |
| C=CCNC(=O)c1ccc(-n2cccc2)cc1 | inconclusive: 19 µM [inhibitor, partial curve, poor fit] |
| COc1ccccc1C(=O)Nc1cccc(OCc2cc(=O)n3ccccc3n2)c1 | active: 7.57 µM |
| Nc1c(Cl)c(Cl)nc(C(=O)OCC(=O)NC2CCCCC2)c1Cl | inactive |
| c1ccc(CN2CCN(c3nc4ccccc4s3)CC2)cc1 | active: 2.69 µM |
| COc1ccccc1CSc1ncc(-c2ccc([N+](=O)[O-])cc2)[nH]1 | inconclusive: 23.9 µM [inhibitor, partial curve, poor fit] |
| CC1CCc2c(sc(NC(=O)CN3CCN(C(=O)c4ccco4)CC3)c2C#N)C1 (centres undefined) | inconclusive: 23.9 µM [inhibitor, partial curve, poor fit] |
| CC(C)CC(NC(=O)CNC(=O)C1O[C@@H]2OC(C)(C)O[C@@H]2[C@H]2OC(C)(C)O[C@@H]12)C(=O)O (some centres undefined) | inactive |
| Cc1ccnc(N2CCCC(C(=O)NC3CC3)C2)n1 (centres undefined) | inactive |
| O=C(O/N=C1\CCS(=O)(=O)c2sccc21)c1ccccc1 | active: 2.69 µM |
| CCOc1ccc(-c2nnc(NC(=O)Cc3ccc(OC)cc3)o2)cc1 | inconclusive: 30.1 µM [inhibitor, partial curve, poor fit] |
| COc1cccc2sc(Nc3nnc(-c4ccc(F)cc4)o3)nc12 | active: 23.9 µM |
| COc1ccccc1NC(=O)CSc1nnc(NC(=O)C2CC2)s1 | inconclusive: 19 µM [inhibitor, partial curve, poor fit] |
| Cc1cccc(OCC(=O)N=Nc2c(O)[nH]c3ccc([N+](=O)[O-])cc23)c1 | inconclusive: 37.9 µM [inhibitor, single point] |
| O=c1c(Br)c(NCc2ccccc2)cnn1-c1ccc(F)cc1 | inconclusive: 26.9 µM [inhibitor, single point] |

| SMILES | Potency |
| --- | --- |
| O=C(N/N=C/c1ccc(-c2ccc(S(=O)(=O)Nc3ncccn3)cc2)o1)c1cc2ccccc2cc1O | active: 21.3 µM |
| O=C(Nc1ccc2oc(-c3ccc4ccccc4c3)nc2c1)c1cccs1 | active: 5.36 µM |
| Cc1cc(NC(=O)CCC(=O)N(c2ccc(F)cc2)C(C(=O)NC2CCCC2)c2cccnc2)no1 (centres undefined) | inactive |
| CCOc1ccc(C2C=C(c3ccccc3)Nc3nnnn32)cc1 (centres undefined) | inactive |
| CCN(CC)Cc1c(O)ccc2c(=O)c(-c3ccccc3)coc12 | inconclusive: 37.9 µM [inhibitor, single point] |
| COc1ccc(C2CC(c3cccs3)=Nc3ccccc3S2)cc1OC (centres undefined) | inconclusive: 21.3 µM [inhibitor, single point] |
| Cc1ccc2c(c1)c1ncn(CCC3=CCCCC3)c(=O)c1n2C | inconclusive: 21.3 µM [inhibitor, single point] |
| O=C(Cn1cc(SCc2ccccc2Cl)c2ccccc21)N1CCOCC1 | active: 12 µM |
| COc1ccccc1NC(=O)/C=C/c1ccc2c(c1)OCO2 | active: 6.75 µM |
| O=C(COC(=O)COc1cccc(C(F)(F)F)c1)Nc1ccc(N2CCOCC2)cc1 | inactive |
| COc1ccc2c(c1)sc(=NC(=O)CS(=O)(=O)c1ccc(F)cc1)n2C | inactive |
| Cc1ccc(NC(=O)Cn2cnc3c(oc4ccccc43)c2=O)cc1Cl | inactive |
| C/C(=N\Nc1nc2ccccc2[nH]1)c1ccc2c(c1)OCCO2 | active: 6.01 µM |
| Cc1ccc(N2C(=O)C(Cl)=C(NCc3ccccc3)C2=O)c(C)c1 | inconclusive: 26.9 µM [inhibitor, single point] |
| Cc1cc(C)c2cccc(NC(=S)NC(=O)c3ccccc3)c2n1 | inconclusive: 19 µM [inhibitor, partial curve] |
| O=C(NCC1CCCO1)c1cc2cc(Cl)ccc2[nH]1 (centres undefined) | inconclusive: 33.8 µM [inhibitor, partial curve, poor fit] |
| CN(c1ccc(Br)cc1)S(=O)(=O)c1ccc2[nH]cc(C(=O)NCCN3CCOCC3)c(=O)c2c1 | inactive |
| CCOC(=O)c1cccc(NC(=O)c2ccc(NC(=O)C3CCCO3)cc2)c1 (centres undefined) | inconclusive: 26.9 µM [inhibitor, single point] |
| CCOC(=O)C1CCN(C(=O)c2ccc3c(c2)NC(=O)/C(=C\c2ccc(C)cc2)S3)CC1 | active: 23.9 µM |
| CC1CCc2c(sc3ncnc(NCc4cccnc4)c23)C1 (centres undefined) | active: 26.9 µM |
| COc1cccc2c1O/C(=N\O)C(C(=O)Nc1ccc(C)cc1)C2 (centres undefined) | inconclusive: 37.9 µM [inhibitor, partial curve, poor fit] |
| Nn1c(Nc2ccccc2)nc2ccccc21 | active: 10.7 µM |
| O=C(NCc1ccccc1)c1cccn1-c1nnc(N2CCCCC2)s1 | inactive |
| COc1ccc(N2CCN(c3ccc(C(=O)O)cc3[N+](=O)[O-])CC2)cc1 | inconclusive: 19 µM [inhibitor, single point] |
